The results in this text go back to the supplement of paper PMC3334620.

In all, about 33,000 sequences were measured (“E-score (-0.5 to 0.5)”: median about -0.021, highest 2% from about 0.32 on). The list shows a part of the results.

This experiment addresses T1, Zap1 (UniProt P47043).
T1 sequence: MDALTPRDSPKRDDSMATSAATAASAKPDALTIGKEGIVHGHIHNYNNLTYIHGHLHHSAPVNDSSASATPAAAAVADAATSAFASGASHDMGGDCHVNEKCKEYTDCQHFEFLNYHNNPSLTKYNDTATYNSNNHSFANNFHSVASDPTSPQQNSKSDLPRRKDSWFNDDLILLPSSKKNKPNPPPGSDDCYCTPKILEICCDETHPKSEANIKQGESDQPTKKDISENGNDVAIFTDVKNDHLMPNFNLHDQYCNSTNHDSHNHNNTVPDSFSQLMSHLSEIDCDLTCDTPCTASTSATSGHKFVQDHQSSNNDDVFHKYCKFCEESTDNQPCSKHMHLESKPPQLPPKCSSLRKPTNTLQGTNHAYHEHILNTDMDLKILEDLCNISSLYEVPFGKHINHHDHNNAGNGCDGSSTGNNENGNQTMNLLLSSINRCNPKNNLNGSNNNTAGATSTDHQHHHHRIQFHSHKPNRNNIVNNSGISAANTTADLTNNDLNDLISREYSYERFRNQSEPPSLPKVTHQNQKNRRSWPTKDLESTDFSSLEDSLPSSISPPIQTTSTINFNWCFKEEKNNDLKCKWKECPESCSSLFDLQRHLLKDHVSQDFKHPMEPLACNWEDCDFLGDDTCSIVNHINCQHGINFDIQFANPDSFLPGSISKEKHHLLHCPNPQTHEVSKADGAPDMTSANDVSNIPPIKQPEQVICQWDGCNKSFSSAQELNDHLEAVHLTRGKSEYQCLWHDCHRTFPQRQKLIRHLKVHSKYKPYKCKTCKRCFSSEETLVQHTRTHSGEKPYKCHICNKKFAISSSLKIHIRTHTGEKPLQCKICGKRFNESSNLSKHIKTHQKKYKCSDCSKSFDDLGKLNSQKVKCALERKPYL
Put plainly: PBM E-score (8-mer binding enrichment) (E-score (-0.5 to 0.5)); higher = stronger / more preferred TF binding; most listed sequences are background and not binding sites. Conditions: protein concentration: 200 nM; construct: GST-full length. Put shortly: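 Universal all-10-mer Agilent arrays, fresh or stripped once, were converted to double-stranded form by primer extension. GST-tagged yeast transcription factors from PURExpress in vitro transcription/translation, full-length or DNA-binding domain only, were applied at about 100-200 nM and detected with fluorescent anti-GST. After masliner normalisation, the Universal PBM Analysis Suite scored each ungapped eight-base word together with its reverse complement by E-score.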
TACACAAA: the “PBM E-score” value came out at 0.211.
As for GATAGTCA, the figure is -0.0807.
Take GTATGGAA: the “PBM E-score” value is 0.068.
As for GGGGTAGA, the figure is 0.014; as for GCTCTTAA, 0.0298; as for CCTGTGAA, 0.0649.
As for AATAGCTA, the figure is 0.0811.
As for AAAGCATA, the figure is -0.0596; as for ATCTATAA, 0.0901.
With GGGCTCCA, the “PBM E-score” value was -0.206.
As for CAGGTACA, the figure is 0.101; as for CATATTCC, -0.15; as for CCCGGGGC, 0.0993.
As for ATGTACAC, the figure is -0.0654; as for GAACCATC, -0.0493.
As for CACGCGGA, the “PBM E-score” value came out at 0.0723.
As for CCCTGACG, the figure is 0.0529; as for GACCAAAA, 0.28; as for AACTCAGT, -0.0972.
On to GCGGATAA, for which the “PBM E-score” value turned out to be 0.0975.
As for TCACCTCA, the figure is 0.13; as for TATTGTAA, 0.0918; as for CGGCTCAA, 0.0563.
As for AGGCCTCC, the figure is -0.0325; as for GGATTCAC, 0.0709.
As for ATTGGCTG, the figure is -0.0836.
In the case of GCTAACCA, the “PBM E-score” value stood at 0.235.
AGCCCTAG: the “PBM E-score” value was -0.14.
On to CATTAAAA, for which the “PBM E-score” value is 0.225.
As for ATGCTAAT, the figure is -0.068; as for CGTGATGA, -0.0344; as for GAGCTTAC, -0.115.
On to AAGTCGCT, for which the “PBM E-score” value was -0.344.
As for CGCCGGGC, the figure is -0.316; as for GGAGGCCC, -0.0513; as for AAAATCTC, -0.00181.
As for CTTCGAGC, the figure is -0.18; as for CTGACCAC, 0.153; as for GCCAAGAC, -0.138.
As for ATTCGCCA, the figure is -0.113.
As to AGAGCAGG, the “PBM E-score” value was -0.114.
For TATCGAGA, the “PBM E-score” value was -0.0612.
As for CCCAGGGG, the figure is 0.171; as for ACAAGACT, -0.0293.
As for GGTAGCCA, the figure is 0.159; as for GGTTGCGA, 0.335.
As for CGGGGTTA, the figure is 0.474; as for AAGTTGCG, 0.0515.
Turning to AATGTTGC, the “PBM E-score” value is -0.0536.
As for ATAGCAAT, the figure is 0.00048.
As for CCCGCTCC, the figure is -0.303; as for CAGGCACG, -0.246.
As for AAGGCCGC, the figure is 0.177; as for AGATTGGC, -0.178; as for CTTGATTA, 0.14.
Regarding AAATTCGG, the “PBM E-score” value worked out at 0.0593.
As for GGTGGACA, the figure is -0.146; as for CTATATCA, 0.0264.
As for ATAGAGTG, the figure is 0.0625; as for ACGTTCGA, -0.259; as for AAAATGTA, 0.0542.
As for ATGACCAG, the figure is 0.222; as for AGATGAAC, 0.109.
TAGGGAAA: the “PBM E-score” value was -0.195.
For the sequence CTGTGTAA, the “PBM E-score” value turned out to be 0.12.
In the case of AATCATAT, the “PBM E-score” value is 0.104.
As for CAGGATAC, the figure is -0.0439; as for CTTTCATA, 0.132.
In the case of GTGACAAC, the “PBM E-score” value stood at 0.252.
Take AAGCCTCC: the “PBM E-score” value was -0.279.
Take GCTAGAGA: the “PBM E-score” value is -0.0712.
On to GAGATGAA, for which the “PBM E-score” value was -0.101.
As to CCGGCGCC, the “PBM E-score” value was -0.114.
As for AAAATAGG, the figure is 0.054; as for GAAAGACC, 0.0674.
As for CGACTCTC, the figure is -0.257; as for ACGGTTCG, -0.122.
As for TCAACTAA, the figure is 0.2.
For the sequence GACGTTAA, the “PBM E-score” value was -0.0249.
Take AGAGTAAC: the “PBM E-score” value was found to be 0.108.
As for ACGATAGG, the figure is -0.0988; as for GTCTGGCA, -0.204.
As for AACTTAGG, the figure is 0.176; as for AGGTGTCA, 0.0475; as for TGTTCAAA, 0.134.
As for GGGTGCGA, the figure is -0.0192.
As to CCATACAA, the “PBM E-score” value was 0.0852.
As for GTTCAGGA, the figure is -0.0383.
In the case of AAAAATCA, the “PBM E-score” value turned out to be 0.0593.
As for CCGAAAAA, the figure is 0.281.
As for GAGACGAC, the figure is -0.0111; as for CAAATTAC, 0.119; as for CTTAGGAA, 0.0479.
As for ACCCGAAG, the “PBM E-score” value came to 0.197.
